The source of these data is ChEMBL document CHEMBL4888484, “Replenishing the malaria drug discovery pipeline: Screening and hit evaluation of the MMV Hit Generation Library 1 (HGL1) against asexual blood stage Plasmodium falciparum ,using a nano luciferase reporter read-out” (2022).

SMILES strings stand for the structures. Screen size: about 150,000 compounds; about 540 (0.36%) showed an effect of 50% or more. The list shows a part of the results.

In this test the test system is Plasmodium falciparum. Put plainly: Primary screen in NF54 nanoGlo assay, in single point, at 2uM, 72h; a lower Z score goes with more inhibition. It is filed as functional, Erythrocyte. As to conditions: timepoint 72 hour.
For the compound `COc1c(C(=O)Nc2ccc(F)cc2)oc2ccc(NC(=O)c3cccc(Cl)c3)cc12`, the “% Inhibition” value was -15% and the Z score amounted to 1.77.
Turning to `Cc1cccc2ncn([C@@H](C)Cc3cccnc3)c(=O)c12`, the “% Inhibition” value was -15% and the Z score is given as 2.12.
Consider `O=C(CCc1nc2cc(Cl)ccc2s1)N1CCN2CCC1C2` (stereo unspecified), for which the “% Inhibition” value was 1% and the Z score is on record as -0.08.
Taken in the same sequence, the figures for `COc1ccc2oc(CN3CCc4ccc(S(C)(=O)=O)cc4CC3)cc2c1` were 20% and -2.5.
In the case of `O=c1[nH]ccc2c1N(S(=O)(=O)c1cnn(C3CCCC3)c1)CCC2`, the “% Inhibition” value came out at 7% and the Z score is -1.05.
Turning to `COc1cccc(CN2CCC[C@H](NCc3c(C)nn(-c4ccc(F)cc4)c3C)C2)c1`, the “% Inhibition” value came to 7% and the Z score is given as -0.87.
Take `Cc1c(CC(=O)N2CCC2)c2c(n1Cc1ccccc1F)CCCC2=O`: the “% Inhibition” value is 5% and the Z score is on record as -0.72.
For `CC1(C)COCCN1Cc1nc(-c2cccnc2)no1` the same measures were -31% and 3.62.
In the case of `COc1ccc([C@H](CNC(=O)c2n[nH]nc2C)N2CCCCC2)cc1`, the “% Inhibition” value was -6% and the Z score is listed as 0.71.
Regarding `Cc1ccc(-c2nc(C#N)c(S(=O)(=O)Cc3ccccc3F)o2)cc1`, the “% Inhibition” value is recorded as -2% and the Z score amounted to 0.28.
For `COC(=O)C[C@H](C)NC(=O)Nc1ccc(F)c(C)c1`, the “% Inhibition” value is reported as -9% and the Z score came to 0.87.
On to `CCc1ccc(C(C)(C)NS(=O)(=O)[C@@H](C)C(=O)N(C)C)cc1`, for which the “% Inhibition” value is 3% and the Z score is -0.45.
For `Cc1nc(C(C)C)sc1C(=O)N1CC[C@]23C(=O)N(CC(=O)NCCCOc4cccc(c4)[C@H]12)c1ccccc13` the same measures were -11% and 1.61.
For the compound `O=C(c1cnccn1)N1C2C=CCC1CC2` (stereo unspecified), the “% Inhibition” value is listed as -2% and the Z score turned out to be 0.4.
For the compound `O=C(O)c1ccccc1CCC(=O)N1CC(c2ccccc2)C2CCCC21` (stereo unspecified), the “% Inhibition” value is 23% and the Z score is on record as -2.96.
Take `CC(C)(C)OC(=O)N1CCCC(NCC(O)c2ccsc2)C1` (stereo unspecified): the “% Inhibition” value was -4% and the Z score is listed as 0.46.
In the case of `CN(C)c1cc(Cn2c(=O)[nH]c3ccccc3c2=O)ccn1`, the “% Inhibition” value is listed as -19% and the Z score amounted to 1.78.
For `O=C(NCc1ccccn1)c1ccc(Nc2c(Oc3ccccc3)cnn(-c3ccc(F)cc3)c2=O)cc1`, the “% Inhibition” value is listed as -2% and the Z score was found to be 0.16.
As for `COc1ccc(CNC(=O)Cn2nc(C(=O)N3CCCC3)ccc2=O)cc1`, the “% Inhibition” value is on record as -8% and the Z score was determined as 1.1.
For the compound `CC(C)(C)[C@H]1CCCN(C(=O)CCNC(N)=O)C1`, the “% Inhibition” value is -6% and the Z score was found to be 0.98.
For `Cc1cccc(N2CC[C@@H](C(=O)N3CCN(Cc4ccccc4)CC3)C2=O)c1C`, the “% Inhibition” value is given as 13% and the Z score is reported as -1.6.
`CON(C)c1ncnc2scc(-c3ccc(Cl)cc3)c12`: the “% Inhibition” value is -2% and the Z score was determined as 0.36.
For `Cn1ncc2c(=O)n(Cc3nc4ccccc4o3)nnc21` the same measures were -10% and 1.28.
With `CN(C)C(=O)CO[C@H]1CCOC[C@H]1Nc1nc(N)nc2[nH]ncc12`, the “% Inhibition” value is given as -6% and the Z score amounted to 0.94.
Regarding `CCc1cnc(CCNc2nc3c(cnn3C(C)(C)C)c(=O)[nH]2)s1`, the “% Inhibition” value is on record as -5% and the Z score turned out to be 0.99.
For `Cc1cc(C)c(C(=O)N2CC(N3CCOCC3)C2)c(=O)[nH]1`, the “% Inhibition” value is reported as -13% and the Z score turned out to be 1.11.
For `Cc1ccc(Nc2c(-c3c[nH]c4ccccc34)nc3cnccn23)c(Br)c1` the same measures were 7% and -0.82.
Taken in the same sequence, the figures for `Cc1ncsc1CCNC(=O)[C@@H]1CCCN1S(C)(=O)=O` were -15% and 2.94.
On to `O=C(Nc1cnns1)c1cccc(CN2[C@@H]3CC[C@H]2C[C@@H](O)C3)c1`, for which the “% Inhibition” value was -3% and the Z score was 0.34.
With `CC(C)C1CN(C(=O)NC2CCc3[nH]cnc3C2)CCCO1` (stereo unspecified), the “% Inhibition” value stood at 5% and the Z score is -0.88.
As for `Oc1ccc(Cc2ccccc2)cc1CNc1ccc2oc(Cc3ccc(Cl)cc3)nc2c1`, the “% Inhibition” value was 1% and the Z score is listed as -0.07.
As for `CCCCN1CCN(C(=O)c2ccc(NC(=O)C3CCC3)cc2)CC1=O`, the “% Inhibition” value is -6% and the Z score amounted to 0.54.
Taken in the same sequence, the figures for `CC(C)NC(=O)CCNC(=O)NCCc1cccc(F)c1F` were -7% and 0.74.
Take `CC(C)c1ccc(CNc2nc(-c3ccco3)n[nH]2)cc1`: the “% Inhibition” value is reported as -1% and the Z score stood at 0.24.
For `CN(C)c1cc(C(F)(F)F)nc(N2CCC(CNS(C)(=O)=O)CC2)n1`, the “% Inhibition” value is listed as -1% and the Z score is given as 0.07.
Take `CC1(C)CN(CN2CCN(c3ccccc3)CC2)c2nnc(-c3ccccc3)n2C1`: the “% Inhibition” value was 31% and the Z score is listed as -3.96.
With `Cc1c(N2CCC(C(=O)NCCCN(C)C3CCCCC3)CC2)c(=O)n(C)c(=O)n1-c1ccccc1`, the “% Inhibition” value is given as -10% and the Z score is listed as 1.95.
For `CN(CCS(C)(=O)=O)C(=O)c1occc1-c1ccc(F)cc1` the same measures were 12% and -1.5.
As for `COC1CCN(C(=O)c2cc(C3CC3)[nH]n2)CC1`, the “% Inhibition” value is recorded as -9% and the Z score came out at 1.63.
As to `Cc1n[nH]c(C)c1C(C)CC(=O)NC(c1ccccc1)C1CCCO1` (stereo unspecified), the “% Inhibition” value was -7% and the Z score was 0.86.
Turning to `CCc1cccc(CC)c1N1C(=O)C2CCC(c3ccccc3)CC2C1=O` (stereo unspecified), the “% Inhibition” value is listed as -6% and the Z score came out at 0.78.
For `CCN(CC)C(=O)C1=CC(c2ccc3c(c2)OCO3)=NS(=O)(=O)N1C`, the “% Inhibition” value is on record as -13% and the Z score was 2.42.
Regarding `O=C(COc1ccccc1)Nc1ccc(N2CCCN(Cc3ccc(Cl)c(Cl)c3)C2=O)cc1`, the “% Inhibition” value was -16% and the Z score is 1.57.
Consider `Cc1cccc(NC(=O)c2ccc(=O)n(CCC(=O)NC3CCCC3)n2)c1`, for which the “% Inhibition” value turned out to be 2% and the Z score is on record as -0.19.
Consider `N#Cc1ncccc1S(=O)(=O)NCc1noc(-c2ccccc2)n1`, for which the “% Inhibition” value is on record as -12% and the Z score is on record as 1.1.
Take `CCn1c(C)nnc1COc1ccc2c(c1)CCC2`: the “% Inhibition” value is recorded as -18% and the Z score was 2.31.
With `Cc1ccc(S(=O)(=O)Nc2c(S(=O)(=O)c3ccc(C)cc3)c3nc4ccccc4nc3n2CCC(C)C)cc1`, the “% Inhibition” value is reported as 85% and the Z score was -10.94.
Turning to `O=C(c1cccs1)N1CCOC2CCCCC21` (stereo unspecified), the “% Inhibition” value is given as -13% and the Z score is 1.56.
As to `CN(CCc1ccccn1)C(=O)/C(=C/c1ccccc1)NC(=O)c1ccccc1`, the “% Inhibition” value is reported as -3% and the Z score amounted to 0.62.
As for `COc1ccc(CC(=O)N2CCN(c3nc(-c4ccccc4)no3)CC2)cc1`, the “% Inhibition” value is recorded as -12% and the Z score was determined as 1.69.
As for `CCN(Cc1cc(-c2ccc(C)cc2C)on1)C(=O)NC(C)C`, the “% Inhibition” value was 6% and the Z score was -0.95.
As for `Cc1ccc(CS(=O)(=O)N(CCO)C2CCC2)c(F)c1`, the “% Inhibition” value is -5% and the Z score came to 0.77.
On to `CCNC(=O)[C@H]1Cc2ccccc2CN1C(=O)c1ccn(C)c(=O)c1`, for which the “% Inhibition” value is recorded as -14% and the Z score was found to be 1.2.
For `CC[C@H]1CN(Cc2ccnn2-c2ccccc2)CCN1C(C)C`, the “% Inhibition” value is listed as -3% and the Z score amounted to 0.36.
For the compound `Cc1ccc(CNC(C)CC(O)c2ccc(F)cc2)nc1` (stereo unspecified), the “% Inhibition” value is 2% and the Z score is recorded as -0.21.
On to `O=C(NC[C@H]1COc2ccccc2O1)c1ccccc1-c1ccccc1`, for which the “% Inhibition” value is -12% and the Z score stood at 1.83.
Taken in the same sequence, the figures for `Cc1ccc(NC(=O)N2CC[C@H]3C(=O)NCCCCCN(Cc4cccnc4)[C@@H]3C2)cc1C` were -9% and 1.34.
Regarding `CN(Cc1ccccc1)c1cnn(C[C@H](O)CO)c(=O)c1`, the “% Inhibition” value was -6% and the Z score came to 0.75.
`O=C(c1cnc(O)cn1)N1CCC([C@@H](O)CCc2ccccc2)CC1`: the “% Inhibition” value is recorded as -15% and the Z score was 2.16.
Taken in the same sequence, the figures for `Cc1ccccc1NC(=O)c1nnc(CCCC(=O)N2CCCCC2)s1` were -1% and 0.2.
For `O=C(Nc1c[nH]nc1-c1nccs1)NC1CCOC2(CCOC2)C1` (stereo unspecified), the “% Inhibition” value was -5% and the Z score turned out to be 0.77.
For `CC(C)N(CC1CCC1)C(=O)Cc1ccc(C(=O)O)cc1` the same measures were -11% and 1.39.
Consider `CCOc1ccc(CN[C@@H](C(=O)O)c2ccnn2C)cc1F`, for which the “% Inhibition” value came out at 1% and the Z score is on record as -0.2.
As for `CCc1nc(CN(C)CN2C(=O)NC(C3CC3)(C3CC3)C2=O)cs1`, the “% Inhibition” value was -8% and the Z score stood at 1.49.
In the case of `CC(C)(C)OC(=O)NC1(CNC(=O)C2CCN(C(=O)c3ccc(F)cc3F)CC2)CCCCCC1`, the “% Inhibition” value was -15% and the Z score is 1.6.
Turning to `COc1ccc(-c2n[nH]cc2CNCCc2ccc(Cl)cc2)cc1F`, the “% Inhibition” value was 16% and the Z score is listed as -3.12.
As for `C[C@H]1c2c(F)cccc2CCN1C(=O)c1occ2c1CCOC2`, the “% Inhibition” value stood at 1% and the Z score is -0.14.
Take `CC1=[N+]([O-])C(C)(C)C(c2cccs2)=[N+]1[O-]`: the “% Inhibition” value is on record as -5% and the Z score came out at 0.78.
In the case of `COc1ccc(OCc2cc(C(=O)N(C)[C@@H](C)c3nccs3)n[nH]2)c(Cl)c1`, the “% Inhibition” value was found to be 8% and the Z score was -0.73.
On to `CC[C@H]1C(=O)NCCN1Cc1cnc(-c2ccccc2)s1`, for which the “% Inhibition” value is given as 0% and the Z score is listed as -0.01.
Regarding `O=C(C1CCCC1)N1CC(N(Cc2ccccn2)C(=O)Nc2ccccc2)C1`, the “% Inhibition” value turned out to be 3% and the Z score was -0.59.
Take `COc1ccc(Cc2nc3ccccc3n2CC(=O)N2CCC(C)CC2)cc1`: the “% Inhibition” value is on record as -1% and the Z score worked out at 0.11.
For `O=c1[nH]nc2n1CC[C@@H](NS(=O)(=O)c1ccc3c(c1)OCCO3)CC2` the same measures were -16% and 2.45.
In the case of `Cc1cc(C)nc(N2CCN(c3nccs3)CC2)n1`, the “% Inhibition” value was -14% and the Z score was determined as 1.41.
`Cc1nn(C)cc1-c1cc(-c2cn(C)nc2C)n(Cc2ccc(Cl)cc2)n1`: the “% Inhibition” value was determined as 35% and the Z score was -3.97.
With `Clc1cccc(CN2CCC[C@H](n3cncn3)C2)c1Cl`, the “% Inhibition” value is reported as -10% and the Z score is given as 1.44.
For `CC1(C)[C@@H]2Cc3nc4c(cc3[C@H]1C2)CCCC4`, the “% Inhibition” value was 0% and the Z score is reported as 0.
Take `O=C(O)c1cccc(NC(=O)c2cccc3cc[nH]c23)c1`: the “% Inhibition” value was -18% and the Z score was 2.53.
Taken in the same sequence, the figures for `CN=C(NCC1(c2ccccc2)CC1)NC1CCCCC1` were 3% and -0.41.
As to `Cc1cc(C)n(-c2ncc(NC(=O)c3ccc4c(c3)OCO4)cn2)n1`, the “% Inhibition” value is on record as -7% and the Z score worked out at 1.06.
In the case of `O=C(C1CCCC1)N1CCN(CCO)CC1`, the “% Inhibition” value is 5% and the Z score is on record as -0.78.
In the case of `CNc1cc(-c2nc(CCCN3CCCC3)no2)ccn1`, the “% Inhibition” value is on record as -3% and the Z score is 0.63.
As to `O=C(c1ccccc1-n1cnnn1)N1CCN(Cc2ccc(-c3cccc(Cl)c3)s2)CC1`, the “% Inhibition” value is listed as -32% and the Z score is given as 3.73.
